Laboratory results: PubChem BioAssay AID624417 (National Center for Advancing Translational Sciences (NCATS), 2012)
Screen size: about 410,000 compounds; about 6,400 (1.6%) were called active. The inconclusive results got no clear call from the source; some entries with a clear call stand among them for comparison. The call rests on the fitted dose curve; in most records, active means well fitted inhibition curve with a large enough effect; inconclusive means small, poorly fitted or top-dose-only effect; inactive means no such curve, though single readings can be large or run the other way. Where the call is inconclusive, the potency comes from a doubtful curve fit.

What follows are molecules tested against Glucagon-like peptide 1 receptor (Homo sapiens) (UniProt P43220) (assay: qHTS of GLP-1 Receptor Inverse Agonists (Inhibition Mode)). Conditions: HEK293 GLP-1R CRE-luciferase, luminescence, 24 h, GLP-1R form is constitutively active; activity change, negative = inhibition: at 38.3 µM (top of the series) unless noted.
Sequence of UniProt P43220 (P43220 whole entry, looked up): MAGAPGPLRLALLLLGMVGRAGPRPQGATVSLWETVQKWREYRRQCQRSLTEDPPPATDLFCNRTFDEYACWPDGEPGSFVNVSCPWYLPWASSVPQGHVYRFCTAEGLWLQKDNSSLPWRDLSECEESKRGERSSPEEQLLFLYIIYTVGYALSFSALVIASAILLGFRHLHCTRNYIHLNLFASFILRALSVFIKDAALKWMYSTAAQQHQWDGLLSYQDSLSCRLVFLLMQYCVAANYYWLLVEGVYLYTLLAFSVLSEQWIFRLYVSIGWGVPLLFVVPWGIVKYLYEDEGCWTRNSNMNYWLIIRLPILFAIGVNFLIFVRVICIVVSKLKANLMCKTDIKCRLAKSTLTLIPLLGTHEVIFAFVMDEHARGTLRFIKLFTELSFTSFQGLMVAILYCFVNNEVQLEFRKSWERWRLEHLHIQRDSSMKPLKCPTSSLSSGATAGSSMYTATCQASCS
Method in brief: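 Readout was luciferase luminescence, measured 12 min after detection reagent at room temperature. Beforehand, GLP-1R reporter HEK293 cells had sat 12 h, then received compounds for 24 hr at 37 deg C.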
Further: nearly all actives have a fitted effect of over 55% in size.
On the % scale 0 is the no-effect control and ±100 the full control effect; potency means the concentration at half of the fitted maximal effect; tags describe the fitted curve by direction and shape.

Potency, inconclusive:
Cc1cccc(NC(=O)c2cc(S(=O)(=O)NCCc3ccccc3)ccc2F)c1C 11.2 µM [inhibitor, single point]
COc1ccccc1C1c2c(-c3ccc(Cl)cc3)n[nH]c2C(=O)N1c1ccc(C)cc1 (configuration not stated) 15.8 µM [inhibitor, single point]
O=C(CN1CCNCC1)Nc1ccc(Oc2ccccc2)cc1 8.91 µM [inhibitor, partial curve]
Cc1cc(/C=C(\C#N)C(=O)O)c(C)n1-c1ccc(Br)cc1 20 µM [inhibitor, partial curve, poor fit]
O=C(O)CN1C(=O)/C(=C/c2ccccc2Cl)Oc2ccccc21 11.2 µM [inhibitor, single point]
C=Cc1ccc(Cn2c(C(=O)O)c(CNCc3ccc(F)cc3)c3ccc(C)cc32)cc1 12.6 µM [inhibitor, partial curve, poor fit]
O=C(CCc1c[nH]c2ccccc12)NCCc1ccc2c(c1)OCCO2 10 µM [inhibitor, partial curve]
CCN1C(=O)C(CC(=O)Nc2ccc(OC)cc2)N(CCc2ccc(F)cc2)C1=S (configuration not stated) 4.47 µM [inhibitor, full curve, poor fit]
CCOc1ccc(C(=O)Nc2cccc(-c3nc4ccccc4[nH]3)c2C)cc1[N+](=O)[O-] 20 µM [inhibitor, single point]
COc1cccc(CN2CCN(C(=O)c3cccc4ccccc34)CC2)c1OC 11.2 µM [inhibitor, partial curve, poor fit]
O=C(CSc1ccc2ccccc2c1)N1CCN(c2ccc(O)cc2)CC1 3.55 µM [inhibitor, full curve]
COc1ccccc1CNc1nc(Nc2cccc(-c3cnco3)c2)c2sccc2n1 28.2 µM [inhibitor, single point]
O=C1CS(=O)(=O)C2(C(=O)N(Cc3ccccc3Cl)c3ccccc32)N1c1ccc(F)cc1 (configuration not stated) 2 µM [inhibitor, partial curve, poor fit]
CCOc1cccc(NC(=O)C2CC(=O)N(CC)C(=Nc3ccc(F)cc3)S2)c1 (configuration not stated) 10 µM [inhibitor, partial curve, poor fit]
COC(=O)c1c(NC(=O)Cc2ccccc2)sc2c1CC(C)(C)NC2(C)C 3.55 µM [inhibitor, single point]
Cc1cnc(NC(=O)CSc2nnc(-c3ccccc3)n2Cc2ccccc2)s1 10 µM [inhibitor, single point]
CC(C)(C)c1ccc(/C=C/C(=O)Nc2ccc(S(N)(=O)=O)cc2)cc1 7.94 µM [inhibitor, partial curve, poor fit]
CCOc1ccc(CCNC(=O)c2cc3cccc4c3n2CCS4)cc1 28.2 µM [inhibitor, single point]
O=C(c1cccc(S(=O)(=O)NCc2ccccc2)c1)N1CCN(c2cccc(C(F)(F)F)c2)CC1 12.6 µM [inhibitor, single point]
Cn1nc(C(=O)Nc2cccc(Cl)c2)cc1C(=O)Nc1cccc(Cl)c1 2.24 µM [inhibitor, partial curve, poor fit]
CC(=O)N(C1=C(N2CCOCC2)C(=O)c2ccccc2C1=O)c1ccc(C(=O)O)cc1 12.6 µM [inhibitor, partial curve, poor fit]
O=C(NCC(c1cccnc1)N1CCc2ccccc21)c1cccc(Br)c1 (configuration not stated) 1.58 µM [inhibitor, partial curve, poor fit]
c1ccc(C2=NC(c3ccccc3)N=C(c3ccccc3)N2)cc1 28.2 µM [inhibitor, single point]
CCCCCCCCN1C(=O)[C@H](CC(=O)NCCCOC)C[C@@]2(C(=O)OC)CC(C)(C)CC=C12 11.2 µM [inhibitor, partial curve, poor fit]
NC(=O)C1CN(C(=O)c2cccc(S(=O)(=O)N3CCc4ccccc43)c2)c2ccccc2O1 (configuration not stated) 11.2 µM [inhibitor, partial curve]
CC(C)NC(=O)N1CCCN(c2nc3ccc(Cl)cc3s2)CC1 11.2 µM [inhibitor, single point]
COc1ccc2[nH]c(C)c(CCN(Cc3cccs3)C(=S)Nc3ccccc3)c2c1 28.2 µM [inhibitor, single point]
NC(=O)C1(N2CCCCC2)CCN(c2nc(-c3ccccc3)cs2)CC1 28.2 µM [inhibitor, single point]

Potency, active:
CCCn1c(SCC(=O)Nc2ccccc2-c2ccccc2)nnc1-c1ccoc1C 11.2 µM

Potency, inactive:
CCc1c(C2CC2)ncn1Cc1cccc(-c2ccccc2)c1
O=S(=O)(Nc1nc(-c2ccco2)c(-c2ccco2)s1)c1ccc(F)cc1F
COCCCNC(=O)c1cc2cc(S(=O)(=O)N3CCCCC3)ccc2n1C
COc1ccc2cc(CN(CCCN3CCOCC3)Cc3nnnn3C3CCCCC3)c(=O)[nH]c2c1
Cc1cc(C)c(NC(=O)CSc2ncc3c(n2)-c2cc(Cl)ccc2N(C)S3(=O)=O)c(C)c1
Cc1cc(C)c(C#N)c(SCCS(=O)(=O)c2ccc(Cl)cc2)n1
Clc1cncc(Cl)c1NNc1c2ccccc2nc2ccccc12
Cc1ccc(NC(=O)c2ncn(CC(=O)NCc3ccc4c(c3)OCO4)n2)cc1C
CCN(CC)S(=O)(=O)c1ccc2c(c1)N(CC(=O)Nc1ccccc1F)C(=O)C1CCCN21 (configuration not stated)
COC(=O)c1c(-c2ccc(Cl)cc2)noc1N1CCN(c2cc(C)ccc2C)CC1
CCCCOc1ccc(Cc2n[nH]c(=S)n2N)cc1
CCOC(=O)C(NC(C)=O)(Nc1ccc(F)cc1)C(F)(F)F (configuration not stated)

Activity change, negative = inhibition, inactive:
S=C(NCC1CCCO1)N1CCN(c2ccccc2)CC1 (configuration not stated) -14.6% [at 7.66 µM]
